# Results: the supplement of paper PMC9174493
# The other results are listed elsewhere or left out. Single values of this set are uncertain. Values with irradiation are relative to irradiated vehicle.
# System: A549-Dual
# Assay: NF-kB reporter (SEAP) activity, viability-corrected, relative to vehicle (fold change vs vehicle); higher = more activation of STING-IRF / NF-kB immune response reporter
# Details: 10 µM; irradiation: none
# 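Throughout, for NF-kB reporter (SEAP) activity, viability-corrected, relative to vehicle: viability correction based on the alamar blue assay, with concentrations leaving 10% survival or less dropped.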
row,SMILES,NF-kB reporter
1,CC(=O)Oc1cccc2c1C(=O)c1c(OC(C)=O)cc(C(=O)O)cc1C2=O [Diacerein],0.983
2,CNCC(O)c1ccc(O)c(O)c1.O=C(O)C(O)C(O)C(=O)O (configuration not stated) [Epinephrine bitartrate],1.08
3,CC1(C(=O)O)CCC2(C)CCC3(C)C(=CC(=O)C4C5(C)CCC(OC6OC(C(=O)O)C(O)C(O)C6OC6OC(C(=O)O)C(O)C(O)C6O)C(C)(C)C5CCC43C)C2C1.N.N (configuration not stated) [Diammonium Glycyrrhizinate],1.11
4,CCCCCCCCCCCCCCCCCCOP(=O)([O-])OC1CC[N+](C)(C)CC1 [Perifosine (KRX-0401)],0.922
5,COc1c2occc2cc2ccc(=O)oc12 [Methoxsalen],0.92
6,O=C(O)CCCN1CCC(OC(c2ccc(Cl)cc2)c2ccccn2)CC1 (configuration not stated) [Bepotastine],0.762
7,CN(C)CCCOc1nn(Cc2ccccc2)c2ccccc12.Cl [Benzydamine HCl],0.866
8,CC(C(=O)O)c1ccc2c(c1)[nH]c1ccc(Cl)cc12 (configuration not stated) [Carprofen],0.962
9,COc1cc2nccc(Oc3ccc(NC(=O)Nc4cc(C)on4)c(Cl)c3)c2cc1OC [Tivozanib (AV-951)],0.737
10,Oc1ccc(/C=C/c2cc(O)cc(O)c2)cc1 [Resveratrol],1.43
11,Nc1cccc2c1C(=O)N(C1CCC(=O)NC1=O)C2=O (configuration not stated) [Pomalidomide],0.753
12,COc1cc(C2c3cc4c(cc3C(OC3OC5COC(c6cccs6)OC5C(O)C3O)C3COC(=O)C23)OCO4)cc(OC)c1O (configuration not stated) [Teniposide],1.68
13,S=c1nc[nH]c2nc[nH]c12 [Mercaptopurine (6-MP)],0.943
14,CC(C(=O)O)c1ccc2c(c1)CC(=O)c1ccccc1S2 (configuration not stated) [Zaltoprofen],0.799
15,Cc1nc(Nc2ncc(C(=O)Nc3c(C)cccc3Cl)s2)cc(N2CCN(CCO)CC2)n1.Cl [Dasatinib hydrochloride],1.01
16,"O=c1[nH]cc(F)c(=O)[nH]1 [Fluorouracil (5-Fluoracil, 5-FU)]",1.14
17,COc1cc(/C=C/C(=O)/C=C(O)/C=C/c2ccc(O)c(OC)c2)ccc1O [Curcumin],0.711

# System: A549-Dual
# Assay: ISRE reporter (Lucia luciferase) activity, viability-corrected, relative to vehicle (fold change vs vehicle); higher = more activation of STING-IRF / NF-kB immune response reporter
# Details: 0.1 µM; irradiation: 8 Gy/4 fr
row,SMILES,ISRE reporter
1,CC1=C(CC(=O)O)c2cc(F)ccc2/C1=C\c1ccc(S(C)=O)cc1 (configuration not stated) [Sulindac],1.06
2,C1N2CN3CN1CN(C2)C3 [Methenamine],1.07
3,COc1ccc2cc(C(C)C(=O)[O-])ccc2c1.[Na+] (configuration not stated) [Naproxen Sodium],1
4,Cc1ccc(Cl)c(Nc2ccccc2C(=O)[O][Na])c1Cl [Meclofenamate Sodium],1.18
5,O=C(OCCOCCO)c1ccccc1Nc1cccc(C(F)(F)F)c1 [Etofenamate],0.888
6,O=C([O-])c1cc(N=Nc2ccc(O)c(C(=O)[O-])c2)ccc1O.[Na+].[Na+] [Olsalazine Sodium],0.961
7,CC(=O)Nc1ccc(OC(=O)c2ccccc2OC(C)=O)cc1 [Benorylate],1.04
8,CO/N=C(\C(=O)NC1C(=O)N2C(C(=O)OCOC(=O)C(C)(C)C)=C(C)CSC12)c1csc(N)n1.Cl (configuration not stated) [Cefetamet pivoxil hydrochloride],0.939
9,CCC(C(=O)O)c1ccc(N2Cc3ccccc3C2=O)cc1 (configuration not stated) [Indobufen],1.06
10,CS(=O)(=O)O.Cc1ccc(NC(=O)c2ccc(CN3CCN(C)CC3)cc2)cc1Nc1nccc(-c2cccnc2)n1 [Imatinib Mesylate (STI571)],0.885
11,CC(C(=O)O)c1ccc(C(=O)c2ccccc2)s1 (configuration not stated) [Tiaprofenic acid],1.05
12,CCc1nc(N)nc(N)c1-c1ccc(Cl)cc1 [Pyrimethamine],1.13
13,COc1cc(C2c3cc4c(cc3C(OC3OC5COC(C)OC5C(O)C3O)C3COC(=O)C23)OCO4)cc(OC)c1O (configuration not stated) [Etoposide],1
14,CN(C)CCC(c1ccc(Br)cc1)c1ccccn1.O=C(O)/C=C\C(=O)O (configuration not stated) [Brompheniramine hydrogen maleate],1.04
15,CC12CCC3c4ccc(O)cc4CC(CCCCCCCCCS(=O)CCCC(F)(F)C(F)(F)F)C3C1CCC2O (configuration not stated) [Fulvestrant],0.825
16,O=C([O-])CC(O)(CC(=O)[O-])C(=O)[O-].O=C([O-])CC(O)(CC(=O)[O-])C(=O)[O-].[BiH6+3].[K+].[K+].[K+] [Gastrodenol],1.22
17,CCCCC1(COC(=O)CCC(=O)O)C(=O)N(c2ccccc2)N(c2ccccc2)C1=O [Suxibuzone],1.22
18,O=C(O)Cc1ccccc1Nc1c(Cl)cccc1Cl.OCCN1CCCC1 [Diclofenac Epolamine],0.888
19,Cl.N=C1CCCN1Cc1[nH]c(=O)[nH]c(=O)c1Cl.O=c1[nH]c(=O)n(C2CC(O)C(CO)O2)cc1C(F)(F)F.O=c1[nH]c(=O)n(C2CC(O)C(CO)O2)cc1C(F)(F)F (configuration not stated),0.906
20,NC(CO)(CO)CO [Trometamol],1.02

row,SMILES,ISRE reporter
1,COc1ccc2c(c1)c(CC(=O)O)c(C)n2C(=O)c1ccc(Cl)cc1 [Indomethacin],1.04
2,Cn1cnc([N+](=O)[O-])c1Sc1ncnc2nc[nH]c12 [Azathioprine],1.05
3,NCCNc1ccc(NCCN)c2c1C(=O)c1ccncc1C2=O.O=C(O)/C=C\C(=O)O.O=C(O)/C=C\C(=O)O [Pixantrone Maleate],0.57
4,CC(=O)Oc1cccc2c1C(=O)c1c(OC(C)=O)cc(C(=O)O)cc1C2=O [Diacerein],1.05
5,CNCC(O)c1ccc(O)c(O)c1.O=C(O)C(O)C(O)C(=O)O (configuration not stated) [Epinephrine bitartrate],1.27
6,CC1(C(=O)O)CCC2(C)CCC3(C)C(=CC(=O)C4C5(C)CCC(OC6OC(C(=O)O)C(O)C(O)C6OC6OC(C(=O)O)C(O)C(O)C6O)C(C)(C)C5CCC43C)C2C1.N.N (configuration not stated) [Diammonium Glycyrrhizinate],0.992
7,CCCCCCCCCCCCCCCCCCOP(=O)([O-])OC1CC[N+](C)(C)CC1 [Perifosine (KRX-0401)],1.03
8,COc1c2occc2cc2ccc(=O)oc12 [Methoxsalen],0.929
9,O=C(O)CCCN1CCC(OC(c2ccc(Cl)cc2)c2ccccn2)CC1 (configuration not stated) [Bepotastine],1.13
10,CN(C)CCCOc1nn(Cc2ccccc2)c2ccccc12.Cl [Benzydamine HCl],1.06
11,CC(C(=O)O)c1ccc2c(c1)[nH]c1ccc(Cl)cc12 (configuration not stated) [Carprofen],0.996
12,COc1cc2nccc(Oc3ccc(NC(=O)Nc4cc(C)on4)c(Cl)c3)c2cc1OC [Tivozanib (AV-951)],0.732
13,Oc1ccc(/C=C/c2cc(O)cc(O)c2)cc1 [Resveratrol],0.967
14,Nc1cccc2c1C(=O)N(C1CCC(=O)NC1=O)C2=O (configuration not stated) [Pomalidomide],0.957
15,COc1cc(C2c3cc4c(cc3C(OC3OC5COC(c6cccs6)OC5C(O)C3O)C3COC(=O)C23)OCO4)cc(OC)c1O (configuration not stated) [Teniposide],0.402
16,S=c1nc[nH]c2nc[nH]c12 [Mercaptopurine (6-MP)],1.09
17,CC(C(=O)O)c1ccc2c(c1)CC(=O)c1ccccc1S2 (configuration not stated) [Zaltoprofen],0.928
18,Cc1nc(Nc2ncc(C(=O)Nc3c(C)cccc3Cl)s2)cc(N2CCN(CCO)CC2)n1.Cl [Dasatinib hydrochloride],0.398
19,"O=c1[nH]cc(F)c(=O)[nH]1 [Fluorouracil (5-Fluoracil, 5-FU)]",1.19
20,COc1cc(/C=C/C(=O)/C=C(O)/C=C/c2ccc(O)c(OC)c2)ccc1O [Curcumin],0.881
